Reference: article PMC9877181 (Current biology : CB, 2022)

How the values were obtained:
[1] = target: T1, BglX (Caulobacter vibrioides, UniProt A0A0H3C5R6); experiment: pNPG hydrolysis, absorbance […] nm; assay type: biochemical; details: 50 mM Tris-HCl pH 8; 4 μM pNPG
T1 sequence (A0A0H3C5R6 38-767): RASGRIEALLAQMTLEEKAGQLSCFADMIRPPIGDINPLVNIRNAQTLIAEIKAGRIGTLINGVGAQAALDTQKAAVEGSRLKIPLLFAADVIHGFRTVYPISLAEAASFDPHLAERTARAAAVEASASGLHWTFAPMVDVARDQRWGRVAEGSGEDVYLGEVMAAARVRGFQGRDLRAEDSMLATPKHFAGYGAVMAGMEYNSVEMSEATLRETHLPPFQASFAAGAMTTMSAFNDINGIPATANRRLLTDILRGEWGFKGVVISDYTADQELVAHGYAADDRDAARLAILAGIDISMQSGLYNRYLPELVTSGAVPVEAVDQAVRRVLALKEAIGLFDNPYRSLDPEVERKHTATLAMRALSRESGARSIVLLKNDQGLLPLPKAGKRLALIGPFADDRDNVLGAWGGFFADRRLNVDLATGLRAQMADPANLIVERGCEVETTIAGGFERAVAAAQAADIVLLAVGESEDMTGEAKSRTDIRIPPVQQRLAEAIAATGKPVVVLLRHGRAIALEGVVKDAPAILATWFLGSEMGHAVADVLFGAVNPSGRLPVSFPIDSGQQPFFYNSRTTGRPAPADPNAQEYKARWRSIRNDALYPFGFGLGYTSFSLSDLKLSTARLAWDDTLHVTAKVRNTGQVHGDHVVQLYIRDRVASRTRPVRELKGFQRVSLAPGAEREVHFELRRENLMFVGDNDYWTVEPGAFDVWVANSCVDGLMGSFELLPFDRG

[2] = target: EstG (Caulobacter vibrioides, UniProt A0A0H3C8K6); assay type: biochemical; details: 50 mM Tris-HCl pH 8; pNB substrate; competitive, active site

Row | Compound | pNPG hydrolysis, absorbance 405 nm [1] | inhibition of pNB hydrolysis, absorbance 405 nm [2]
1 | O=[N+]([O-])c1ccc(O[C@@H]2O[C@H](CO)[C@@H](O)[C@H](O)[C@H]2O)cc1 [pNPG, 4-nitrophenyl-β-D-glucopyranoside] | BglX hydrolyzed pNPG in a concentration-dependent manner, confirming its activity as a glucohydrolase | 
2 | OC[C@H]1O[C@@H]2O[C@H]3[C@H](O)[C@@H](O)[C@@H](O[C@H]4[C@H](O)[C@@H](O)[C@@H](O[C@H]5[C@H](O)[C@@H](O)[C@@H](O[C@H]6[C@H](O)[C@@H](O)[C@@H](O[C@H]7[C@H](O)[C@@H](O)[C@@H](O[C@H]1[C@H](O)[C@H]2O)O[C@@H]7CO)O[C@@H]6CO)O[C@@H]5CO)O[C@@H]4CO)O[C@@H]3CO [α-CD, α-cyclodextrin] |  | increasing amounts of α-CD reduced EstG’s hydrolysis of pNB in a concentration-dependent manner
